Measured values reported in the supplement of paper PMC3334620.
Over roughly 33,000 sequences, “E-score (-0.5 to 0.5)” has its median near -0.043; the highest 2% begin near 0.37. The list shows a part of the results.

These sequences were tested against T1, Upc2 (UniProt Q12151) (assay: PBM E-score (8-mer binding enrichment) (E-score (-0.5 to 0.5)); higher = stronger / more preferred TF binding; most listed sequences are background and not binding sites). Settings: protein concentration: 200 nM; construct: GST-full length.
T1 sequence: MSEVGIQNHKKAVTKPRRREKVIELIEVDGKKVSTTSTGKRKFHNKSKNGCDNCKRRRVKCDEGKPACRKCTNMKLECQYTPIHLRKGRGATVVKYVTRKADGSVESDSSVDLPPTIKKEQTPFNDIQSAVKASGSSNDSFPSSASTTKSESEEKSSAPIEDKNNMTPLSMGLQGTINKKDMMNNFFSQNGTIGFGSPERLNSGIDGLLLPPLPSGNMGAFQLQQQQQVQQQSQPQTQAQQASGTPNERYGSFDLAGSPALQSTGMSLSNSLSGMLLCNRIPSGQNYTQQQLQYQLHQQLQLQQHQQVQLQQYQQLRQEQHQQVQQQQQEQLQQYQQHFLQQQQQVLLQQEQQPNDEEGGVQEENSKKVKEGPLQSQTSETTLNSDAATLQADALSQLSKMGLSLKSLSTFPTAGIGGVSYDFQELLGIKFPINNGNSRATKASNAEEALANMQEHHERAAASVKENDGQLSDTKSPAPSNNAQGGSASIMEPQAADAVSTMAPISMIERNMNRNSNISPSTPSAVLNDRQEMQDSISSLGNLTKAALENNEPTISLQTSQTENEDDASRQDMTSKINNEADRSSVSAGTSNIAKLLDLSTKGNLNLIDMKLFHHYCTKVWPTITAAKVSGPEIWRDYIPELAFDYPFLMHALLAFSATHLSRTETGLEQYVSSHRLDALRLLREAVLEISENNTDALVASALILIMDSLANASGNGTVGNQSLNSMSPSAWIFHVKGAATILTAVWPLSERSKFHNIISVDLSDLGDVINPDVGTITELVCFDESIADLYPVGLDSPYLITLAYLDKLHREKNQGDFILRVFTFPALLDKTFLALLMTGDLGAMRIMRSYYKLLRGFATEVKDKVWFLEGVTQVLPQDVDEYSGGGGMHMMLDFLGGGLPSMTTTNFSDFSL
Description: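 Universal 'all 10-mer' protein binding microarrays (Agilent AMADID 015681) probed with GST-tagged S. cerevisiae TFs (full-length or DBD) made by in vitro transcription/translation (PURExpress), about 100-200 nM. Bound TF was detected with fluorescent anti-GST. Each ungapped 8-mer (which stands for itself and its reverse complement) is scored by the PBM enrichment score (E-score), a modified Wilcoxon-Mann-Whitney statistic from -0.5 to +0.5, computed with the Universal PBM Analysis Suite. Scale: above 0.35 generally sequence-specific binding.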

| Sequence | PBM E-score |
| --- | --- |
| CGGCTTTA | 0.0235 |
| GCCCCGCA | -0.172 |
| ACTTAGCT | -0.201 |
| ATCTGTAA | -0.0759 |
| AACTAACG | 0.16 |
| ACCTGTCT | -0.167 |
| CACGTTCC | -0.00138 |
| ACCGGTTC | -0.171 |
| CATCTAGC | -0.177 |
| ATGAAGCG | -0.171 |
| CGCGACGA | 0.148 |
| CAAGCTAG | -0.141 |
| CAAACACA | 0.0073 |
| AGGTCGCC | -0.293 |
| AGAGTAGA | -0.0212 |
| CGAAAATA | 0.0911 |
| GAGAGTTA | -0.0745 |
| ATCTCTTC | -0.0581 |
| ACTCGCGC | 0.0983 |
| AGATCAGC | -0.135 |
| CCATTACC | -0.118 |
| AAACTTAT | 0.09 |
| AGGCAAGA | -0.111 |
| TGGGTCAA | -0.19 |
| CTTTATTA | -0.07 |

| Sequence | PBM E-score |
| --- | --- |
| CGACGACG | 0.0684 |
| CATCCGCA | -0.0238 |
| GTTGATGA | -0.142 |
| TATATAAA | 0.169 |
| ACCTCACC | -0.104 |
| CATTCTCA | 0.046 |
| ACTCATGA | -0.0777 |
| CACGGCCG | -0.0589 |
| GATTTTGA | 0.0303 |
| AATTTATG | 0.143 |
| AGGACGAC | -0.2 |
| CATACGCA | 0.313 |
| TATAATAA | 0.105 |
| AGACCTTA | -0.0891 |
| AGATTACG | 0.155 |
| TTTCCAAA | -0.0113 |
| CCAATGGG | -0.407 |
| CAAGTCCG | 0.0112 |
| AAATATGT | 0.116 |
| AAAATACT | -0.132 |
| AGGTCTAA | -0.0418 |
| ACATGCCC | -0.0565 |
| CCCGTAGA | -0.00639 |
| ACCACGGT | -0.298 |
| ACAATCGC | 0.177 |

| Sequence | PBM E-score |
| --- | --- |
| GTCAGCGA | -0.157 |
| AATCAGGG | -0.35 |
| ACGGGACG | 0.0961 |
| GCACCCCA | -0.0725 |
| ATGAATTG | -0.0517 |
| ATATTCAG | -0.0198 |
| CCCACCAG | 0.0436 |
| ATGAGTCA | -0.165 |
| GTGTTGGA | -0.112 |
| CACCTTAA | -0.0239 |
| CGGGTCAA | -0.0579 |
| CATCGTAC | 0.454 |
| GTCGACAC | 0.224 |
| TACGTAAA | 0.35 |
| AATTATGG | -0.136 |
| TGGTCAAA | -0.00066 |
| CCAGCCCC | -0.129 |
| TGTGAACA | 0.0443 |
| AACTAAGG | 0.0134 |
| GGCTTTGA | -0.0097 |
| CGACCCTC | 0.0606 |
| AAGGCGTG | 0.0225 |
| GACGCCCA | -0.0905 |
| AGGCGAAC | 0.037 |
| GAGAAGCA | -0.14 |

| Sequence | PBM E-score |
| --- | --- |
| CTAATAAA | 0.0178 |
| AGGCCAAT | 0.0145 |
| CCGTTAGG | -0.0576 |
| AGCTAACA | -0.196 |
| CAATAGAC | -0.215 |
| ATCCCTAC | 0.0336 |
| GAGAGGGA | -0.272 |
| ACATCCCA | -0.15 |
| AAAGTTGC | -0.109 |
| TACCGTCA | 0.0559 |
| TAGCTCAA | -0.194 |
| AGGGCCCC | -0.0589 |
| TGAGCGCA | -0.0898 |
| CGCCCAGA | -0.132 |
| ACCGTTTG | 0.333 |
| AGGGGTCC | -0.168 |
| CCTGGCGA | -0.211 |
| CAACAGGC | 0.0751 |
| AATCCAGT | -0.0287 |
| CCTTAGGA | -0.221 |
| TATTTCAA | -0.0159 |
| AGGTCTTG | -0.244 |
| AAGGGGGA | -0.135 |
| ATTGTATA | 0.0678 |
| TGGCAACA | -0.11 |

| Sequence | PBM E-score |
| --- | --- |
| CGGAGGAA | -0.179 |
| TACGCGAA | 0.33 |
| CATGATGA | -0.0886 |
| AAGGCGGT | 0.0927 |
| AGGCTAGG | -0.241 |
| TTGCACAA | -0.00073 |
| CGATCATC | 0.0255 |
| AGCATGTG | -0.0181 |
| GGAACGTA | 0.282 |
| CGCGGAAG | -0.146 |
| GCATTGCC | 0.107 |
| AATAGTTC | -0.0274 |
| ACCGGTGC | -0.157 |
| AATAACTC | -0.0669 |
| CCGCTAAA | 0.0868 |
| CCCAGCCC | -0.217 |
| AAGTATCG | -0.0548 |
| GGATCCAA | -0.15 |
| AGCTCTTG | -0.231 |
| ATTAAAGG | -0.0441 |
| AGTGCTGA | 0.0336 |
| ACGGCGGC | 0.0871 |
| CCCTTACC | -0.173 |
| ACGAACCG | 0.378 |
| GAAACTTC | 0.183 |

| Sequence | PBM E-score |
| --- | --- |
| ATCCGTCC | -0.237 |
| CGGGTACC | -0.158 |
| ATTTCCAC | -0.204 |
| GCCAGGCA | -0.279 |
| CACCCTTA | -0.0397 |
| ACGTCAAA | 0.0428 |
| GTATGATA | 0.301 |
| AGCCTAAT | 0.112 |
| AATATTAA | 0.188 |
| ATATATGA | 0.0231 |
| AACAACGC | 0.0862 |
| CGGTCCAG | 0.0132 |
| ACGCTAGG | -0.165 |
| CTTTCGTA | 0.416 |
| GACGTACC | 0.167 |
| AGGAGGAA | 0.0635 |
| ACCCAAGT | -0.00236 |
| AACTAGTC | -0.0861 |
| ATACTGGG | -0.00635 |
| AACGATCG | 0.383 |
| AAGCTTGG | 0.127 |
| ACGCCATG | 0.0211 |
| CGCTGGTA | -0.136 |
| AACCACCT | -0.0524 |
| CACGTCAA | -0.0754 |

| Sequence | PBM E-score |
| --- | --- |
| ATATCCAT | 0.12 |
| AATTGGTC | -0.081 |
| AGATCTAT | -0.011 |
| AGCGTGAC | -0.0784 |
| CAGGAACC | -0.161 |
| CTCTTCCC | -0.25 |
| CAGAGCGC | -0.185 |
| AGATCCAT | -0.092 |
| AAAATCGT | 0.254 |
| TAAACTTA | 0.0706 |
| CTGTTTCA | -0.114 |
| ATGGGAGA | -0.251 |
| GGAGAACC | -0.266 |
| AGGCGCGG | -0.0131 |
| GTGCCAAC | -0.0672 |
| AGGGTCCC | -0.229 |
| ATCCCTGA | -0.22 |
| GCGAAGCC | 0.0169 |
| CCGAAAAG | 0.0282 |
| GTTCGACA | -0.0091 |
| AGCTTTGG | 0.0166 |
| AAACAGAT | 0.0332 |
